In PubChem BioAssay (NCI) one finds GI50 and TGI data, which are given here for 21 compounds.

The structures appear in SMILES notation.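 Results reflect a 48-hour exposure of cells in 96-well plates to compound at five concentrations. The concentration for 50% growth inhibition is given as GI50. TGI: concentration producing complete growth inhibition.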

This assay relates to NCI-H322M lung. Put plainly: growth of human tumour cells (NCI), 48 h.

As for `C=C(Cn1c(=O)c2ccccc2c2ccccc21)c1ccc(C(=O)Nc2ccccc2N)cc1`, the GI50 was more than 70 µM and the TGI is more than 100 µM.

`CC1=NN(C(=O)c2ccccc2O)C(=O)/C1=C/c1ccc([N+](=O)[O-])cc1`: the GI50 was 2.88 µM and the TGI was more than 100 µM.

Regarding `C[N+]1(C)CCCC1C(=O)[O-]` (stereo not drawn), the TGI is more than 100 µM.

The compound `COC(=O)[C@H](Cc1ccccc1)NC(=O)c1ccc(CNC(=O)/C=C/c2ccc(-c3ccccc3)cc2)cc1` returned a TGI of more than 100 µM.

With `CCC(C)[C@@H](NCc1ccccc1)[C@H](OCc1ccccc1)[C@@H]1COC(C)(C)O1` (stereo partly drawn), the TGI came to 67 µM.

In the case of `Nc1nc2c(=O)c3ccccc3sc2s1`, the TGI was more than 100 µM.

Take `Cc1nc2ccc(CN(C)c3ccc(C(=O)N[C@@H](CCC(=O)O)C(=O)O)s3)cc2c(=O)[nH]1`: the TGI was more than 100 µM.

`Nc1ccn(C2OC(CO)C(O)C2F)c(=O)n1` (stereo not drawn): the GI50 is more than 5000 µM and the TGI is more than 5000 µM.

With `C(=Nc1ccccc1)C1CCCC[N-]1.C(=Nc1ccccc1)C1CCCC[N-]1.[Cu+2].[O-][Cl+3]([O-])([O-])O` (stereo not drawn), the GI50 was 13.5 µM and the TGI was 33.9 µM.

`O=C(O)CCCl` returned a TGI of more than 5000 µM.

The compound `CCC(C)CN1C(=O)NC(C)(Cc2ccccc2)C1=O` (stereo not drawn) registered a TGI of more than 100 µM.

`CC(=O)NC1C(OCc2ccccc2)OC(CO)C(O)C1OCC(=O)NC(C)C(=O)NC(CCC(=O)NCCCCNc1ccc([N+](=O)[O-])c2[nH]c3ccccc3c(=O)c12)C(N)=O` (stereo not drawn): the TGI is more than 100 µM.

For the compound `CN1CCc2cc3c(cc2C1O)OCO3` (stereo not drawn), the GI50 is 37 µM and the TGI is more than 63.7 µM.

Regarding `COc1ccc(S(=O)(=O)NC(C)C(=O)O)cc1` (stereo not drawn), the TGI was more than 100 µM.

Turning to `CC(=O)N1CCN(C2=Nc3ccccc3CO2)C1=S`, the GI50 was more than 100 µM and the TGI was more than 100 µM.

`O=C(c1ccccc1)c1ccc2c(c1)nc1n2C(c2c(Cl)cccc2Cl)SC1` (stereo not drawn) showed a TGI of more than 100 µM.

For the compound `C[n+]1c(/C=C\C=C\N2CCCCC2)sc2ccccc21`, the GI50 is 1.03 µM and the TGI was 14.5 µM.

`O=C1c2ccccc2C2CNC1(O)c1ccccc12` (stereo not drawn) yielded a TGI of more than 100 µM.

As for `O=C1c2ccccc2C2(O)Nc3cc(O)ccc3C12O` (stereo not drawn), the TGI is more than 100 µM.

Compound `Nc1ncnc2c1ncn2C1OC(COP(=O)(O)CP(=O)(O)O)C(O)C1O` (stereo not drawn) registered a TGI of more than 100 µM.

In the case of `O=C1c2c(F)c(F)c(F)c(F)c2SC2=NCCN12`, the TGI turned out to be 30.7 µM.
